We go through 1 molecule from publication PMC13065467, “Assembly and phosphoregulatory mechanisms of the budding yeast outer kinetochore KMN complex” (The Journal of Cell Biology, 2026).

By UniProt entry, the sequences of proteins in these tests, tags left out. Where a name states a change or a piece, a line headed by the entry shows the natural chain unless it says otherwise.
UniProt P53148: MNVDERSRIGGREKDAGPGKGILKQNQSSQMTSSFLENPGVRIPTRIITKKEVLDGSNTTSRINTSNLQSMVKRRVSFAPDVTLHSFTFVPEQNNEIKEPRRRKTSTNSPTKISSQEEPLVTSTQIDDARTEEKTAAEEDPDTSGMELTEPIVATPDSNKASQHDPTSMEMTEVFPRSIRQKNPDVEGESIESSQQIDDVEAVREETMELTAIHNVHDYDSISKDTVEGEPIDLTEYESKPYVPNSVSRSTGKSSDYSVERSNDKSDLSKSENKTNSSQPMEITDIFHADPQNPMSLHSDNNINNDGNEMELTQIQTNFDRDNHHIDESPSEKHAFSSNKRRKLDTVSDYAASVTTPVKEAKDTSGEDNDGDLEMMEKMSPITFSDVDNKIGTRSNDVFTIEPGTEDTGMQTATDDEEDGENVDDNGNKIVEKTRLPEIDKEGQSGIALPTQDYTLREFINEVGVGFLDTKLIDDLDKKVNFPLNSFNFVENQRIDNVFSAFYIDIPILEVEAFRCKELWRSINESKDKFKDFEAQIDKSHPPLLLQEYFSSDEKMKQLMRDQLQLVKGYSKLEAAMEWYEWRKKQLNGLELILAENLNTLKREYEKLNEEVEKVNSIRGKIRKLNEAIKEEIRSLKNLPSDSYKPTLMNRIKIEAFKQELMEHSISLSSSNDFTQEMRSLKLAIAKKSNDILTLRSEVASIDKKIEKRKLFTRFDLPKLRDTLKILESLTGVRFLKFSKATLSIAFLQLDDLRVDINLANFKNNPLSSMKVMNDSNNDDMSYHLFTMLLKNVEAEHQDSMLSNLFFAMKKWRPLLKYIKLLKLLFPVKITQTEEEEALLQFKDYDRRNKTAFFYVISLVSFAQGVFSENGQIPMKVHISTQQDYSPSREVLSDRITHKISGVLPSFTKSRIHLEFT
UniProt Q04431: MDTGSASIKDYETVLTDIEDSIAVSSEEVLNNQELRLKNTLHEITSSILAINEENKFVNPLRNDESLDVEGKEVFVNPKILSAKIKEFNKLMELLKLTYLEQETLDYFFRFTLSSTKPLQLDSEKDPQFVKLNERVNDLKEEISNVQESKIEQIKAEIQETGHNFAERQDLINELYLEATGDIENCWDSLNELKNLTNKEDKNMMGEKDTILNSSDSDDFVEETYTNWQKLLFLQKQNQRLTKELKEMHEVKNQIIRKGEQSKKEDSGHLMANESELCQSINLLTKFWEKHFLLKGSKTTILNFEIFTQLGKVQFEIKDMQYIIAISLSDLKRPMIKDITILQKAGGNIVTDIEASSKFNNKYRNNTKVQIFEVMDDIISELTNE
UniProt P40568: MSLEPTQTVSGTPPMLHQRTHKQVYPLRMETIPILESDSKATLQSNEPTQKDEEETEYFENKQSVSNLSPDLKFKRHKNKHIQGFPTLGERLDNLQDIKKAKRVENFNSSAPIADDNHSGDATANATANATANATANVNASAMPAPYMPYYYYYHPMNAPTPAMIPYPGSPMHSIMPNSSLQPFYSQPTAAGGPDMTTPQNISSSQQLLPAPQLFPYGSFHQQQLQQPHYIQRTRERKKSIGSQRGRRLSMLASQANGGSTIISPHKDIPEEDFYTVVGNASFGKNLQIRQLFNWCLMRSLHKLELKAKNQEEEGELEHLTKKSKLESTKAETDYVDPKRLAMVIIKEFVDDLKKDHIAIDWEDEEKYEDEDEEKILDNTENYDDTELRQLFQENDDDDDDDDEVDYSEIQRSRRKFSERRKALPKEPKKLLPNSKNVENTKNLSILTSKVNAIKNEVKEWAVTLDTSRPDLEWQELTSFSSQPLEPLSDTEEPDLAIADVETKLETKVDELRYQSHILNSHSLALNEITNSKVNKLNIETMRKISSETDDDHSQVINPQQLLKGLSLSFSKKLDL
UniProt P39731: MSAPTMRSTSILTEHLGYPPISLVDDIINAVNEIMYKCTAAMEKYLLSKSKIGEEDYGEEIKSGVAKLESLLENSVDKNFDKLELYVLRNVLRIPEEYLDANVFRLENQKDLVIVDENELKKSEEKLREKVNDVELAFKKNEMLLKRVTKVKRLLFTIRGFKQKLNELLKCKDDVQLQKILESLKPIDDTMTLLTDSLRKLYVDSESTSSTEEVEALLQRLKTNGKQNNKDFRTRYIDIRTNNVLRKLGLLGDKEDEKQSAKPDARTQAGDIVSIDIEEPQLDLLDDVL
UniProt P47149: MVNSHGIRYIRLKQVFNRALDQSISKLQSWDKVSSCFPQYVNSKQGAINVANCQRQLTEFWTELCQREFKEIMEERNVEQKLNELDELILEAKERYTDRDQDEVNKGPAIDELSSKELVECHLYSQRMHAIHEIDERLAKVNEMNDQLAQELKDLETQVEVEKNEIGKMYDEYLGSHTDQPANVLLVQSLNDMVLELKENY
UniProt Q12143: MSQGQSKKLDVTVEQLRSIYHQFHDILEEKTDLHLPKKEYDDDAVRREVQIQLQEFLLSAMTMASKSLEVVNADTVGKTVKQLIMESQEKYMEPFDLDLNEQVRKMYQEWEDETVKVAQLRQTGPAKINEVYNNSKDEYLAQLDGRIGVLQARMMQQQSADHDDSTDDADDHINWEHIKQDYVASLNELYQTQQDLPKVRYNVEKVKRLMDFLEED

These are yes or no findings as the source states them, for the method shown.

Assay [1] addresses Knl1c:Mis12c^Mtw1c complex K^HB-RWDM^Dsn1Δ226 (Dsn1 residues 1–226 deleted) (S. cerevisiae) (UniProt P53148+Q04431+P40568+P39731+P47149+Q12143). As to the kind of experiment: SEC; 4 μM Knl1c:Mis12c^Mtw1c complex mixed with 4 μM CENP-C^Mif2_1-63 or CENP-QU in KMN buffer, 30 min on ice; Superose 6 3.2/300 in 20 mM HEPES pH 7.5, 150 mM NaCl, 1 mM TCEP; fractions on SDS-PAGE; both purified.

In assay [2] the target is Knl1c:Mis12c^Mtw1c complex K^HB-RWDM (Knl1^Spc105_HB-RWD, ZWINT^Kre28, Dsn1, Mis12^Mtw1, Nnf1, Nsl1) (S. cerevisiae) (UniProt P53148+Q04431+P40568+P39731+P47149+Q12143). The description is as above.

B1: CENP-C^Mif2 residues 1–63 (CENP-C^Mif2_1–63) (domain or fragment, S. cerevisiae, UniProt P35201 1-63, looked up)
chain: MDYMKLGLKSRKTGIDVKQDIPKDEYSMENIDDFFKDDETSLISMRRKSRRKSSLFLPSTLNG
notes: CENP-C^Mif2, S. cerevisiae S288c, residues 1-63; source: E. coli BL-21 CodonPlus-RIL, purified (HisTrap, Ulp1 cleavage, reverse IMAC, Resource S, SEC); not shown: 6xHis-SUMO, N-terminal, cleaved
With B1, the binding entry in assay [1] and in assay [2] was “no binding (tested: 4 μM of each)” each time.
